# According to PubChem BioAssay AID924 (National Center for Advancing Translational Sciences (NCATS), 2007):
# Hit rate of the full screen: of about 130,000 compounds, about 1,200 (0.92%) were called active. The shares of active, inactive and inconclusive entries below differ from those in the screen. Calls follow the shape of the dose curve; as a rule, active = well fitted cell-killing curve with a large enough effect; inconclusive = small, poorly fitted or top-dose-only effect; inactive = no such curve, though single readings can be large or run the other way. Potencies beside an inconclusive call are fits to weak or partial responses and may not hold up.
# Assay: qHTS Screen for Compounds that Selectively Target Cancer Cells with p53 Mutations: Cytotoxicity of p53ts Cells at the Permissive Temperature; also: nearly all actives have a fitted effect of over 55% in size;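 as to activity change, negative = cytotoxicity: 0% = DMSO and -100% = full killing by reference compound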
# Conditions: H1299-p53A138V at 32C, ATP luminescence viability, 24 h; activity change, negative = cytotoxicity: at 46.1 µM (top of the series)
# Method in brief: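 Viability by ATPlite luminescence after 24 h compound treatment (up to 46 uM) at the permissive 32C. Cells are H1299 carrying p53 A138V. Scale runs from DMSO basal to 100 uM tamoxifen as full kill; AC50 from Hill fits.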
# Potency is read from the fitted curve at half-maximal effect; tags tell the direction and shape of the fitted curve.
Structure (SMILES),Potency,"activity change, negative = cytotoxicity"
COc1ccccc1C(=O)Nc1cccc(OCc2cc(=O)n3c(C)csc3n2)c1,inactive,–
O=C(CCS(=O)(=O)c1nc(-c2cccs2)cc(C(F)(F)F)n1)Nc1ccc(Br)cc1,"inconclusive: 31.6 µM [cytotoxic, single point]",–
COc1ccc(CCn2c(=S)[nH]c3cc(C(=O)NCc4ccco4)ccc3c2=O)cc1OC,"inconclusive: 31.6 µM [cytotoxic, single point]",–
COc1ccc(NC(=O)CCc2nc3c(C)nn(-c4ccc(C)cc4)c3n(C)c2=O)c(OC)c1,inactive,–
O=c1c2c3c(sc2ncn1/N=C/c1ccco1)CCCC3,"inconclusive: 12.6 µM [cytotoxic, partial curve]",–
Cc1ccc(C2=CC(c3ccccc3C)n3c(nc4ccccc43)N2)cc1 (stereo not given),"inconclusive: 7.94 µM [cytotoxic, partial curve]",–
CCOc1ccc(NC(=O)CSc2oc(-c3cccs3)nc2S(=O)(=O)c2ccc(C)cc2)cc1,"inconclusive: 10 µM [cytotoxic, partial curve]",–
COc1ccc(NC(=O)c2ccco2)cc1NC(=O)c1ccc(C)c(C)c1,inactive,–
CCC(Sc1ncc(S(=O)(=O)c2ccc(C)cc2)c(=O)[nH]1)C(=O)Nc1cc(C)ccc1C (stereo not given),inactive,–
COc1cc(OC)cc(C(=O)Nc2ccc3nc4c(c(Nc5ccc(OC)c(OC)c5)c3c2)CCCC4)c1,"inconclusive: 25.1 µM [cytotoxic, single point]",–
O=S(=O)(O)c1cc(O)c2c(N=Cc3ccccc3O)cc(S(=O)(=O)O)cc2c1,–,inactive: -3.03% [at 9.22 µM]
COc1ccc(-c2noc(-c3cccc(Cl)c3)n2)cc1OC,inactive,–
COc1cccc(CCc2ccccc2OCC[C@@H]2C[C@@H](O)CN2C)c1,"inconclusive: 20 µM [cytotoxic, single point]",–
COC(=O)c1ccc(NC(=O)Cn2ccn3nc(-c4ccc(OC)cc4)cc3c2=O)cc1,inactive,–
Cc1ccc(C)c(N2CCN(c3nc4ccccc4c(=O)n3-c3ccc(Cl)cc3)CC2)c1,inactive,–
COc1ccc2c(c1)Cc1sc(NC(=O)c3ccccc3C)nc1-2,"inconclusive: 12.6 µM [cytotoxic, partial curve]",–
Cn1c(=O)cc(SCC(=O)Nc2ccccn2)c2ccccc21,"inconclusive: 20 µM [cytotoxic, single point]",–
Nn1c(-c2cccs2)nc2sc3c(c2c1=O)CCCC3,active: 10 µM,–
CCCCOc1ccc(-c2nnc(-c3ccco3)o2)cc1,"inconclusive: 7.94 µM [cytotoxic, partial curve]",–
Cc1ccc2c(c1)N(C(=O)N1CCC(C(=O)NCc3cccc(Br)c3)CC1)CCO2,inactive,–
Cc1ccc(-c2nc(-c3ccccn3)no2)cc1,active: 0.501 µM,–
O=C(Nc1ccc(Br)cc1)c1ccc(F)c(S(=O)(=O)NC2CCCCCC2)c1,"inconclusive: 5.62 µM [cytotoxic, partial curve, poor fit]",–
O=C(Nc1ccc2c(c1)CCC2)c1ccc(F)cc1,"inconclusive: 11.2 µM [cytotoxic, partial curve]",–

Structure (SMILES),Potency,"activity change, negative = cytotoxicity"
Cc1cn2c(=O)cc(COc3cccc(NC(=O)c4ccc(C(C)(C)C)cc4)c3)nc2s1,"inconclusive: 10 µM [cytotoxic, partial curve]",–
Cc1nc2nc(SCC(=O)N(C)Cc3ccccc3)nn2c(C)c1Cc1ccccc1Cl,inactive,–
O=C(CCCCCN1C(=O)c2ccccc2C1=O)Nc1ccc(F)cc1,inactive,–
COc1ccc(CCNC(=O)c2csc3c2CCCCC3)c(OC)c1,"inconclusive: 2.51 µM [cytotoxic, full curve]",–
CC(=O)c1ccc(S(=O)(=O)Nc2ccc(-c3ccc(N4CCCCC4)nn3)cc2)cc1,"inconclusive: 15.8 µM [cytotoxic, partial curve]",–
CC(=O)Nc1ccc(C(=O)Nc2ccc3c(c2)OCO3)cc1,inactive,–
COc1ccc(NC(=O)C2CCN(S(=O)(=O)c3cn(C)cn3)CC2)cc1Cl,inactive,–
O=C(c1ccc([N+](=O)[O-])cc1)N(Cc1ccco1)c1ccccn1,"inconclusive: 35.5 µM [cytotoxic, single point]",–
C#CCCCO/N=C1/C[C@@H](O)[C@@H](O)[C@@H]2[C@@H]3C(=O)N(C(C)(C)C)C(=O)[C@H]3CC[C@@H]12,–,inactive: 3.62% [at 9.22 µM]
Cc1cc(C(=O)Nc2ccc3c(c2)OCCO3)c(C)o1,active: 15.8 µM,–
Cc1cc(NC(=O)NC(=O)c2ccc(F)cc2F)n[nH]1,"inconclusive: 12.6 µM [cytotoxic, partial curve]",–
CS(=O)(=O)c1ncc(Cl)c(C(=O)N2CCN(c3cccc(Cl)c3)CC2)n1,active: 12.6 µM,–
CCCc1oc2ccc(NS(=O)(=O)c3ccc(OCC)cc3)cc2c1C(=O)OCC,"inconclusive: 25.1 µM [cytotoxic, single point]",–
O=C(Nc1cccnc1)Nc1ccc(F)c(Cl)c1,"inconclusive: 12.6 µM [cytotoxic, partial curve]",–
COc1ccc(CC(=O)c2ccccc2C(=O)O)cc1,"inconclusive: 12.6 µM [cytotoxic, partial curve]",–
Cc1cc(-c2nn3c(C)nnc3s2)ccc1NC(=O)C(C)(C)C,"inconclusive: 10 µM [cytotoxic, partial curve]",–
Cc1ccc2c(c1)C(=O)OC(C(=O)Nc1ccc(C(=O)O)cc1)C2 (stereo not given),"inconclusive: 12.6 µM [cytotoxic, partial curve]",–
CCN1c2ccccc2NC2C1C(C(C)=O)C(=O)N2c1ccc(Cl)cc1 (stereo not given),"inconclusive: 31.6 µM [cytotoxic, single point]",–
CCOc1ccc(NC(=O)CSC2=Nc3ccccc3C3=NC(CC(=O)NCc4ccccc4OC)C(=O)N23)cc1 (stereo not given),inactive,–
O=C(Nc1cc2c(cc1C(=O)c1ccc(Br)cc1)OCCO2)c1ccc(Cl)cc1,inactive,–
COc1cccc(C2=CC(c3ccc(C)cc3)n3ncnc3N2)c1 (stereo not given),"inconclusive: 31.6 µM [cytotoxic, single point]",–
CC(C)(C)c1ccc(C(=O)Nc2ccc(C(=O)OCc3cc(=O)n4ccsc4n3)cc2)cc1,active: 15.8 µM,–
